Laboratory results taken from the supplement of paper PMC8728848.
The list shows a part of the results.

Experiments:
Assay in all cases: glycan array binding signal (z-score within array); higher = stronger binding
Conditions in all cases: glycan notation: IUPAC condensed, linker removed
[1] = biological target: Neu5Ac(a2-6)Gal(b1-4)GlcNAc(b1-3)Gal(b1-4)GlcNAc(b1-3)GalNAc
Outline: (§1)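 Columns mapping to the same glycan were averaged after glycan names were converted to IUPAC-condensed notation. The data come from 3228 arrays in the Consortium for Functional Glycomics database, limited to those with an available protein sequence. Binding is reported as a within-array Z-score averaged across arrays of one protein sequence and across linkers.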

[2] = biological target: Neu5Ac(a2-6)Gal(b1-4)GlcNAc(b1-3)Gal(b1-4)GlcNAc(b1-3)[Neu5Ac(a2-6)Gal(b1-4)GlcNAc(b1-3)Gal(b1-4)GlcNAc(b1-6)]GalNAc
Outline: as §1

[3] = biological target: Neu5Ac(a2-6)Gal(b1-4)GlcNAc(b1-3)Gal(b1-4)GlcNAc(b1-6)[Gal(b1-3)]GalNAc
Outline: as §1

[4] = biological target: Neu5Ac(a2-6)Gal(b1-4)GlcNAc(b1-3)Gal(b1-4)[Fuc(a1-3)]GlcNAc(b1-3)Gal(b1-4)[Fuc(a1-3)]GlcNAc
Outline: as §1

[5] = biological target: Neu5Ac(a2-6)Gal(b1-4)GlcNAc(b1-3)GalNAc
Outline: as §1

[6] = biological target: Neu5Ac(a2-6)Gal(b1-4)GlcNAc(b1-3)[Neu5Ac(a2-6)Gal(b1-4)GlcNAc(b1-6)]GalNAc
Outline: as §1

[7] = biological target: Neu5Ac(a2-6)Gal(b1-4)GlcNAc(b1-6)GalNAc
Outline: as §1

[8] = biological target: Neu5Ac(a2-6)Gal(b1-4)GlcNAc(b1-6)[Gal(b1-3)GlcNAc(b1-3)]Gal(b1-4)Glc
Outline: as §1

[9] = biological target: Neu5Ac(a2-6)Gal(b1-4)GlcNAc(b1-6)[Gal(b1-3)]GalNAc
Outline: as §1

[10] = biological target: Neu5Ac(a2-6)Gal(b1-4)GlcNAc6S
Outline: as §1

Neu5Ac(a2-6)GalNAc = biological target: Neu5Ac(a2-6)GalNAc
Outline: as §1

[11] = biological target: Neu5Ac(a2-6)GalNAc(b1-4)GlcNAc
Outline: as §1

[12] = biological target: Neu5Ac(a2-6)GalNAc(b1-4)GlcNAc6S
Outline: as §1

[13] = biological target: Neu5Ac(a2-6)GlcNAc(b1-4)GlcNAc
Outline: as §1

[14] = biological target: Neu5Ac(a2-6)GlcNAc(b1-4)GlcNAc(b1-4)GlcNAc
Outline: as §1

Neu5Ac(a2-8)Neu5Ac = biological target: Neu5Ac(a2-8)Neu5Ac
Outline: as §1

[15] = biological target: Neu5Ac(a2-8)Neu5Ac(a2-3)Gal(b1-3)GalNAc(b1-4)[Neu5Ac(a2-3)]Gal(b1-4)Glc
Outline: as §1

[16] = biological target: Neu5Ac(a2-8)Neu5Ac(a2-3)Gal(b1-3)GalNAc(b1-4)[Neu5Ac(a2-8)Neu5Ac(a2-3)]Gal(b1-4)Glc
Outline: as §1

[17] = biological target: Neu5Ac(a2-8)Neu5Ac(a2-3)Gal(b1-4)Glc
Outline: as §1

[18] = biological target: Neu5Ac(a2-8)Neu5Ac(a2-3)Gal(b1-4)GlcNAc
Outline: as §1

[19] = biological target: Neu5Ac(a2-8)Neu5Ac(a2-3)[Gal(b1-3)GalNAc(b1-4)]Gal(b1-4)Glc
Outline: as §1

[20] = biological target: Neu5Ac(a2-8)Neu5Ac(a2-3)[GalNAc(b1-4)]Gal(b1-4)Glc
Outline: as §1

[21] = biological target: Neu5Ac(a2-8)Neu5Ac(a2-8)Neu5Ac
Outline: as §1

[22] = biological target: Neu5Ac(a2-8)Neu5Ac(a2-8)Neu5Ac(a2-3)Gal(b1-4)Glc
Outline: as §1

[23] = biological target: Neu5Ac(a2-8)Neu5Ac(a2-8)Neu5Ac(a2-3)[Gal(b1-3)GalNAc(b1-4)]Gal(b1-4)Glc
Outline: as §1

[24] = biological target: Neu5Ac(a2-8)Neu5Ac(a2-8)Neu5Ac(a2-3)[GalNAc(b1-4)]Gal(b1-4)Glc
Outline: as §1

[25] = biological target: Neu5Ac(a2-8)Neu5Ac(a2-8)Neu5Ac(a2-8)Neu5Ac(a2-3)[GalNAc(b1-4)]Gal(b1-4)Glc
Outline: as §1

[26] = biological target: Neu5Ac(a2-8)Neu5Gc(a2-3)Gal(b1-4)GlcNAc
Outline: as §1

[27] = biological target: Neu5Ac(b2-6)Gal(b1-4)GlcNAc
Outline: as §1

Neu5Ac(b2-6)GalNAc = biological target: Neu5Ac(b2-6)GalNAc
Outline: as §1

[28] = biological target: Neu5Ac9Ac(a2-3)Gal(b1-3)GlcNAc
Outline: as §1

[29] = biological target: Neu5Ac9Ac(a2-3)Gal(b1-4)GlcNAc
Outline: as §1

[30] = biological target: Neu5Ac9Ac(a2-6)Gal(b1-4)GlcNAc
Outline: as §1

[31] = biological target: Neu5Gc(a2-3)Gal(b1-3)GlcNAc
Outline: as §1

[32] = biological target: Neu5Gc(a2-3)Gal(b1-3)[Fuc(a1-4)]GlcNAc
Outline: as §1

Neu5Gc(a2-3)Gal(b1-4)Glc = biological target: Neu5Gc(a2-3)Gal(b1-4)Glc
Outline: as §1

[33] = biological target: Neu5Gc(a2-3)Gal(b1-4)GlcNAc
Outline: as §1

[34] = biological target: Neu5Gc(a2-3)Gal(b1-4)GlcNAc(b1-3)Gal(b1-4)GlcNAc(b1-2)Man(a1-3)[Neu5Gc(a2-3)Gal(b1-4)GlcNAc(b1-3)Gal(b1-4)GlcNAc(b1-2)Man(a1-6)]Man(b1-4)GlcNAc(b1-4)GlcNAc
Outline: as §1

[35] = biological target: Neu5Gc(a2-3)Gal(b1-4)[Fuc(a1-3)]GlcNAc
Outline: as §1

[36] = biological target: Neu5Gc(a2-6)Gal(b1-4)GlcNAc
Outline: as §1

Neu5Gc(a2-6)GalNAc = biological target: Neu5Gc(a2-6)GalNAc
Outline: as §1

[37] = biological target: Neu5Gc(a2-8)Neu5Ac(a2-3)Gal(b1-4)GlcNAc
Outline: as §1

[38] = biological target: Neu5Gc(a2-8)Neu5Gc(a2-3)Gal(b1-4)GlcNAc
Outline: as §1

[39] = biological target: Neu5Gc(a2-8)Neu5Gc(a2-3)Gal(b1-4)GlcNAc(b1-3)Gal(b1-4)GlcNAc
Outline: as §1

[40] = biological target: Neu5Gc(a2-8)Neu5Gc(a2-6)Gal(b1-4)GlcNAc
Outline: as §1

[41] = biological target: Neu5Gc(b2-6)Gal(b1-4)GlcNAc
Outline: as §1

B1: PX15618A-bth-503-24-503 (Bacteroides thetaiotaomicron) (protein)
chain: NKSEDKLSGDDFWAQGNETNAEAFLLSIYNSFRNATMSQRPFLTYSGDMRCAPITAYSTGDKYVAYLANNDMGELRNTYPDDARGGLIMQWDVFYTAIQDANILLAEIDKVPGMDELKRSRFKAEAIFMRSLSYFFIVRAFGDVPYYTNAYNEAPLPRTNMVIVLQNCLADLQPLLDDDPGAEVLPWSYSSYSSKGIRASRGSVIALMMHINLWLVQFDAQNKEQYYRNVVSLGEELERNNGAYSLLDINRSSVIFAGGSDEGLFEIAQNINFNEIFMMNAKFSDNVSYSCLNKSMPLFCYSGDYLMTLFPMYEDDARKELWFDEKIYSTSVSSSAPKEIKKFWNIDTYGNGTITSNSGNQIVFRYAGALLLYAEALAALGTNDTKACELLNRVRNRAHASEINTSGSELMDAIFWERCRELIGEGHYYYDLVRTGKVYNRNYCMNPMTRTNFNVGAWTWPIHRNALKNNTQIGLNLFWE
In the case of B1, the “glycan array binding signal (z-score)” value [1] is reported as -0.315, the “glycan array binding signal (z-score)” value [2] is reported as -0.704 and the “glycan array binding signal (z-score)” value [3] is reported as -0.735. For the same binder, the “glycan array binding signal (z-score)” value [4] was -0.033, the “glycan array binding signal (z-score)” value [5] was -0.554 and the “glycan array binding signal (z-score)” value [6] was -0.196. For the same binder, the “glycan array binding signal (z-score)” value [7] was 0.431, the “glycan array binding signal (z-score)” value [8] was -0.284 and the “glycan array binding signal (z-score)” value [9] was 0.246. For the same binder, the “glycan array binding signal (z-score)” value [10] was -0.659, the “glycan array binding signal (z-score)” value (Neu5Ac(a2-6)GalNAc) was -0.265 and the “glycan array binding signal (z-score)” value [11] was -0.169. The “glycan array binding signal (z-score)” value [12] was -0.041, the “glycan array binding signal (z-score)” value [13] was 0.284 and the “glycan array binding signal (z-score)” value [14] was 0.102. For the same binder, the “glycan array binding signal (z-score)” value (Neu5Ac(a2-8)Neu5Ac) was 0.041, the “glycan array binding signal (z-score)” value [15] was -0.337 and the “glycan array binding signal (z-score)” value [16] was 0.089. The “glycan array binding signal (z-score)” value [17] was -0.284, the “glycan array binding signal (z-score)” value [18] was -0.205 and the “glycan array binding signal (z-score)” value [19] was -0.339. The “glycan array binding signal (z-score)” value [20] was -0.527, the “glycan array binding signal (z-score)” value [21] was 0.04 and the “glycan array binding signal (z-score)” value [22] was -0.122. The “glycan array binding signal (z-score)” value [23] was 0.016, the “glycan array binding signal (z-score)” value [24] was -0.625 and the “glycan array binding signal (z-score)” value [25] was -0.341. The “glycan array binding signal (z-score)” value [26] was 13.7, the “glycan array binding signal (z-score)” value [27] was 0.114 and the “glycan array binding signal (z-score)” value (Neu5Ac(b2-6)GalNAc) was -0.86. The “glycan array binding signal (z-score)” value [28] was 0.369, the “glycan array binding signal (z-score)” value [29] was 0.039 and the “glycan array binding signal (z-score)” value [30] was 0.191. The “glycan array binding signal (z-score)” value [31] was -0.707, the “glycan array binding signal (z-score)” value [32] was -0.777 and the “glycan array binding signal (z-score)” value (Neu5Gc(a2-3)Gal(b1-4)Glc) was -0.471. For the same binder, the “glycan array binding signal (z-score)” value [33] was 0.54, the “glycan array binding signal (z-score)” value [34] was -0.109 and the “glycan array binding signal (z-score)” value [35] was -0.832. For the same binder, the “glycan array binding signal (z-score)” value [36] was -0.58, the “glycan array binding signal (z-score)” value (Neu5Gc(a2-6)GalNAc) was -0.328 and the “glycan array binding signal (z-score)” value [37] was -0.571. For the same binder, the “glycan array binding signal (z-score)” value [38] was -0.269, the “glycan array binding signal (z-score)” value [39] was -0.399 and the “glycan array binding signal (z-score)” value [40] was -0.097. For the same binder, the “glycan array binding signal (z-score)” value [41] was -0.376.
